# From PubChem BioAssay AID588855 (National Center for Advancing Translational Sciences (NCATS), 2011)
# Hit rate of the full screen: of about 410,000 compounds, about 5,000 (1.2%) were called active. The shares of active, inactive and inconclusive entries below differ from those in the screen. Calls follow the shape of the dose curve; as a rule, active = well fitted inhibition curve with a large enough effect; inconclusive = small, poorly fitted or top-dose-only effect; inactive = no such curve, though single readings can be large or run the other way. Potencies beside an inconclusive call are fits to weak or partial responses and may not hold up.
# Test: qHTS for Inhibitors of TGF-b; also: nearly all actives have a fitted effect of over 65% in size
# Settings: HepG2 CAGA-GFP TGF-b/SMAD3 reporter, GFP fluorescence, 18 h, TGF-beta stimulated, 500 pg/mL final; series mostly up to 46.1 µM
# Summary of the method: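 Using HEPG2 CAGA-GFP reporter cells at 1000 cells/well, we pinned test compounds, stimulated with recombinant TGF-beta (500 pg/mL final) and measured total well GFP after 18 h.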
# Potency is read from the fitted curve at half-maximal effect; tags tell the direction and shape of the fitted curve.
row,SMILES,Potency
1,CC1CCN(c2ccc(/C=N\Nc3nncn3N)cc2[N+](=O)[O-])CC1,"inconclusive: 35.5 µM [inhibitor, single point]"
2,Cc1ccc(-c2nc(C3CCCN(S(=O)(=O)c4ccc(C)cc4)C3)no2)cc1 (stereo unspecified),"inconclusive: 8.91 µM [inhibitor, partial curve, poor fit]"
3,CN1CCC2CC1c1cc(-c3ccc(C(F)(F)F)cc3)ccc12 (stereo unspecified),"inconclusive: 20 µM [inhibitor, partial curve]"
4,CCN(C(=O)C(C)N1C(=O)/C(=C/c2cccs2)SC1=S)C1CCS(=O)(=O)C1 (stereo unspecified),"inconclusive: 10 µM [inhibitor, partial curve, poor fit]"
5,O=C(COc1ccc(NC(=O)c2cccs2)cc1)c1ccc(F)cc1,inactive
6,CCOc1ccc(CCNC(=O)Cn2nc(-c3ccc(C)cc3)ccc2=O)cc1OCC,"inconclusive: 35.5 µM [inhibitor, single point]"
7,CCCc1cc(NCCCn2ccnc2)n2nc(C)c(-c3ccccc3)c2n1,inactive
8,CC(=O)n1nc(-c2ccncc2)nc1SCC(=O)Nc1cccc(Cl)c1,active: 3.98 µM
9,COc1ccc(CSc2ccc(-c3nc4ccccn4c3NCc3ccccc3)cc2OC)cc1,"inconclusive: 4.47 µM [inhibitor, full curve, poor fit]"
10,CC(=O)N1CC(C)Sc2ccc(S(=O)(=O)NCc3ccc(F)cc3)cc21 (stereo unspecified),inactive
11,O=C(NCCc1nc2ccccc2n1Cc1ccc(F)cc1)c1ccco1,inactive
12,COc1cccc(-c2csc(NC3OC(=O)c4c3ccc(OC)c4OC)n2)c1 (stereo unspecified),active: 11.2 µM
13,Cc1ccc(C)c(-n2cc(-c3ccc(Cl)cc3)nc2SCC(=O)NC2CCS(=O)(=O)C2)c1 (stereo unspecified),"inconclusive: 35.5 µM [inhibitor, single point]"
14,CCOCc1ccccc1Nc1ncnc2onc(-c3ccc(Cl)cc3)c12,"inconclusive: 7.08 µM [inhibitor, partial curve, poor fit]"
15,COc1cc(C)c(C)cc1S(=O)(=O)Nc1cccc(-c2ccc(N3CCOCC3)nn2)c1,"inconclusive: 35.5 µM [inhibitor, single point]"
16,CC(C)C[C@H](NC(=O)OC(C)(C)C)C(=O)N[C@@H](CO)[C@H](O)[C@@H]1C[C@@H]1C(=O)NC1CCCCC1,inactive
17,NC(c1ccccc1)c1csc(NC(=O)Nc2cccc(Cl)c2)n1 (stereo unspecified),"inconclusive: 17.8 µM [inhibitor, single point]"
18,Cc1ccc2cc(CN(CC3CCCO3)S(=O)(=O)c3ccccc3)c3nnnn3c2c1 (stereo unspecified),"inconclusive: 35.5 µM [inhibitor, single point]"
19,Cc1nnc(N(CCC#N)CCC#N)s1,"inconclusive: 3.16 µM [inhibitor, single point]"
20,COc1ccc(CC(N)c2csc(NC(=O)c3cccc(OC(F)(F)F)c3)n2)cc1 (stereo unspecified),"inconclusive: 25.1 µM [inhibitor, single point]"
21,Cc1c(C(=O)Nc2cccc(Cl)c2)oc2ccc(S(=O)(=O)N(C)C3CCCCC3)cc12,"inconclusive: 12.6 µM [inhibitor, single point]"
22,COc1cccc(NC(=O)Cn2c(=O)n(-c3ccc(C)cc3)c(=O)c3ccc(C(=O)NCc4ccco4)cc32)c1,"inconclusive: 20 µM [inhibitor, single point]"
23,O=C1NC(c2ccccc2)=CC(c2ccccc2)N1 (stereo unspecified),"inconclusive: 5.62 µM [inhibitor, single point]"
24,O=C1c2ccccc2C(Nc2cccc(C(F)(F)F)c2)N1Cc1ccco1 (stereo unspecified),inactive

row,SMILES,Potency
1,Cc1nn(Cc2c(Cl)cccc2Cl)c(C)c1N,"inconclusive: 10 µM [inhibitor, partial curve, poor fit]"
2,O=S(=O)(Nc1cccc(-c2ccc(N3CCCCCC3)nn2)c1)c1cccc(F)c1,"inconclusive: 35.5 µM [inhibitor, single point]"
3,CCc1ccc(-c2nc(CS(=O)CC(=O)NCCc3ccc(Cl)cc3)c(C)o2)cc1 (stereo unspecified),"inconclusive: 0.794 µM [inhibitor, full curve, poor fit]"
4,Cc1ccc(Cc2c(-c3cccc(Br)c3)nc3ccc(Cl)cn23)cc1,inactive
5,O=C1CCSC2(C(=O)N(Cc3ccc(F)cc3)c3ccccc32)N1c1ccc(F)c(F)c1 (stereo unspecified),"inconclusive: 35.5 µM [inhibitor, single point]"
6,C/C(=N/Nc1ccc([N+](=O)[O-])cc1)c1ccc(C)cc1C,active: 3.55 µM
7,CCOc1ccc2oc(=O)cc(CN3CCN(C(=O)c4ccc(F)cc4)CC3)c2c1,"inconclusive: 12.6 µM [inhibitor, partial curve, poor fit]"
8,O=C(Cn1ncc2c3ccccc3n(Cc3cccc(Cl)c3)c2c1=O)NC1CCCCCC1,inactive
9,CC(=O)N1CCc2cc(S(=O)(=O)CCC(=O)NCc3ccc(Cl)cc3)ccc21,inactive
10,CCOC(=O)C1(CCc2ccccc2)CCN(Cc2ccccn2)CC1,"inconclusive: 20 µM [inhibitor, single point]"
11,CN1CCN(c2ccc(-c3cccc4nccn34)cn2)CC1,inactive
12,S=C(NCc1ccc(Cl)c(Cl)c1)NCc1ccco1,"inconclusive: 35.5 µM [inhibitor, single point]"
13,CCCc1cc(C(=O)Nc2nccs2)cs1,"inconclusive: 35.5 µM [inhibitor, single point]"
14,O=C1C(Cc2ccccc2)Nc2ncnc(N3CCCCC3)c2N1Cc1ccccc1 (stereo unspecified),inactive
15,O=C(Cn1nnc(-c2ccccc2F)n1)NCc1ccco1,inactive
16,Cc1cccc(CC(=O)Nc2cccnc2)c1,inactive
17,Cc1ccc(C(C)C)c(OCC(=O)NN=C2CCCC2)c1,inactive
18,CCn1c(/C=C2\C(=O)N(C)c3ccccc32)nc2ccccc2c1=O,inactive
19,O=C(NCCCc1ccccc1)C1CCN(C(=O)N2CCOc3ccc(Cl)cc32)CC1,"inconclusive: 15.8 µM [inhibitor, single point]"
20,CCCn1nnc(NC(=S)NC(=O)c2ccccc2OC)n1,"inconclusive: 22.4 µM [inhibitor, single point]"
21,O=C1N[C@H]2CC=C[C@H]2N(Cc2cccs2)c2ccccc21,inactive
22,O=C(NCc1ccco1)Nc1cccc([N+](=O)[O-])c1,inactive
23,O=C(NCc1ccccc1)C1(c2ccccc2)CCN(S(=O)(=O)c2ccccc2)CC1,"inconclusive: 15.8 µM [inhibitor, single point]"
24,CCOc1cccc(NC(=O)c2cnccc2C(F)(F)F)c1,"inconclusive: 5.01 µM [inhibitor, single point]"

row,SMILES,Potency
1,CCCc1cc(-c2nc(-c3ccc(C)cc3)cs2)ccn1,"inconclusive: 22.4 µM [inhibitor, single point]"
2,COc1ccc2[nH]c3c(c2c1)CCN1C(=O)N([C@@H](C)C(=O)NCCc2ccc(OC)c(OC)c2)C(=O)[C@]31C,inactive
3,c1cncc(-c2cn(C[C@H]3CC[C@@H]([C@@H]4CC[C@H](Cn5cc(-c6cccnc6)nn5)O4)O3)nn2)c1,"inconclusive: 6.31 µM [inhibitor, single point]"
4,Cc1ccc(C(=O)N2CCN(c3ccc([N+](=O)[O-])c(NCc4cccnc4)c3)CC2)cc1,"inconclusive: 14.1 µM [inhibitor, single point]"
5,Cc1ccc(NC(=O)C2(C)CCN2C(=O)Cc2ccc(-c3ccccc3)cc2)cc1 (stereo unspecified),"inconclusive: 15.8 µM [inhibitor, single point]"
6,CCC(C)[C@H](NC(=O)N1CCn2c1nc1ccccc12)C(=O)NCc1ccccc1 (stereo partly specified),"inconclusive: 35.5 µM [inhibitor, single point]"
7,Cc1oc(=O)c(NC(=O)c2ccccc2)cc1C(=O)c1ccccc1,"inconclusive: 31.6 µM [inhibitor, single point]"
8,CCCN1C(=O)c2ccccc2NC1c1cc(OC)c(OC)c(OC)c1 (stereo unspecified),inactive
9,CCn1c2ccccc2c2nnc(NN)nc21,"inconclusive: 35.5 µM [inhibitor, single point]"
10,O=C(NC1C2CC3CC(C2)CC1C3)C1CC1 (stereo unspecified),inactive
11,O=C(CCCCN1CCCCC1)c1ccccc1,inactive
12,CC(C)(C)C1CCc2c(sc(N)c2C(N)=O)C1 (stereo unspecified),inactive
13,COc1ccc(CCNC(=O)CS(=O)Cc2nc(-c3ccc(C)cc3)oc2C)cc1OC (stereo unspecified),"inconclusive: 31.6 µM [inhibitor, single point]"
14,O=C(CCSCc1ccc(Cl)cc1)N1CCN(c2ccccc2F)CC1,"inconclusive: 12.6 µM [inhibitor, partial curve, poor fit]"
15,O=C(COc1ccc(-c2ccccc2)cc1)N/N=C/c1ccccc1Br,"inconclusive: 22.4 µM [inhibitor, single point]"
16,CCOc1ccc(C(=O)NC(=S)Nc2ccccc2OC)cc1[N+](=O)[O-],"inconclusive: 15.8 µM [inhibitor, single point]"
17,CCC(=O)OCc1cnc(C)c2oc(=O)c(C(=O)Nc3ccc(CC)cc3)cc12,"inconclusive: 6.31 µM [inhibitor, single point]"
18,S=C(NN=C1CCN(Cc2ccccc2)CC1)NC1CCCCC1,"inconclusive: 20 µM [inhibitor, partial curve, poor fit]"
19,CC1CCC(NC(=O)C2CCN(c3c4c(nc5ncnn35)CCC4)CC2)CC1 (stereo unspecified),inactive
20,CC(NC(=O)C1CCN(C(=O)N2CCOc3ccc(Cl)cc32)CC1)c1ccccc1 (stereo unspecified),"inconclusive: 8.91 µM [inhibitor, partial curve]"
21,CCOC(=O)CSc1nc(C)cc(C)c1C#N,inactive
22,Cc1ccc(NC(=O)c2cc(S(=O)(=O)N3CCOCC3)ccc2F)c(C)c1,inactive
23,Cn1c(-c2cc3ccc(OC(=O)C(C)(C)C)cc3oc2=O)nc2ccccc21,"inconclusive: 0.224 µM [inhibitor, full curve, poor fit]"
